# According to the supplement of paper PMC8728848:
# The list shows a part of the results.
# B1: Epa9 (Candida glabrata), CAGL0A01386g (protein)
# chain: MGSSHHHHHHSSGLVPRGSHMDITPFAHYPRPEGCSSPPNAVSVGLHMDLYNYPYLYVKNPRTGFTNDTDSDADGETDGDSAGGIEGRAGQCWNPEYQDPNFPRYGYKKYGSFGSSDHVNGKISWDHNEFKEGCKPIMARLPTAYNYPAKITFSNFTMVLSGYFKPKSTGLYKFEIHADDFILFNFGSKNAFECCNREESIDNFGPYVAYAMWPNEADQELEVYLFEDSYYPIRLFYNNRDYHSKFMVGFYPPNTEEITYDFDGYLYMLDDTGNECKDSIRYKTVCDD
# What was measured:
# Experiment in all cases: glycan array binding signal (z-score within array); higher = stronger binding
# Details in all cases: glycan notation: IUPAC condensed, linker removed
# [1] = molecular target: Man(a1-3)[Man(a1-6)]Man(a1-6)[Man(a1-2)Man(a1-3)]Man(b1-4)GlcNAc(b1-4)GlcNAc
# Outline: (§1)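 Glycan array data came from 3228 arrays in the Consortium for Functional Glycomics database, and only arrays with an available protein sequence were kept. Glycan names were put into IUPAC-condensed notation, and columns mapping to the same glycan were averaged. The binding signal is a within-array Z-score, averaged across arrays of one protein sequence run at different concentrations or buffers and across linkers. A negative Z-score can be read as non-binding.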
# [2] = molecular target: Man(a1-3)[Man(a1-6)]Man(a1-6)[Man(a1-3)]Man
# Outline: as §1
# [3] = molecular target: Man(a1-3)[Man(a1-6)]Man(a1-6)[Man(a1-3)]Man(b1-4)GlcNAc(b1-4)GlcNAc
# Outline: as §1
# [4] = molecular target: Man(a1-3)[Man(a1-6)]Man(b1-4)GlcNAc(b1-4)GlcNAc
# Outline: as §1
# [5] = molecular target: Man(a1-3)[Man(a1-6)]Man(b1-4)GlcNAc(b1-4)[Fuc(a1-6)]GlcNAc
# Outline: as §1
# [6] = molecular target: Man(a1-6)Man
# Outline: as §1
# [7] = molecular target: Man(b1-4)GlcNAc
# Outline: as §1
# [8] = molecular target: MurNAc(b1-4)GlcNAc
# Outline: as §1
# [9] = molecular target: Neu5Ac(a2-3)Gal
# Outline: as §1
# [10] = molecular target: Neu5Ac(a2-3)Gal(b1-3)GalNAc
# Outline: as §1
# [11] = molecular target: Neu5Ac(a2-3)Gal(b1-3)GalNAc(b1-3)Gal(a1-4)Gal(b1-4)Glc
# Outline: as §1
# [12] = molecular target: Neu5Ac(a2-3)Gal(b1-3)GalNAc(b1-4)Gal(b1-4)Glc
# Outline: as §1
# [13] = molecular target: Neu5Ac(a2-3)Gal(b1-3)GalNAc(b1-4)[Neu5Ac(a2-3)]Gal(b1-4)Glc
# Outline: as §1
# [14] = molecular target: Neu5Ac(a2-3)Gal(b1-3)GalNAc(b1-4)[Neu5Ac(a2-8)Neu5Ac(a2-3)]Gal(b1-4)Glc
# Outline: as §1
# [15] = molecular target: Neu5Ac(a2-3)Gal(b1-3)GalNAc6S
# Outline: as §1
# [16] = molecular target: Neu5Ac(a2-3)Gal(b1-3)GlcNAc
# Outline: as §1
# [17] = molecular target: Neu5Ac(a2-3)Gal(b1-3)GlcNAc(b1-2)Man
# Outline: as §1
# [18] = molecular target: Neu5Ac(a2-3)Gal(b1-3)GlcNAc(b1-2)Man(a1-3)[GlcNAc(b1-4)][Neu5Ac(a2-3)Gal(b1-3)GlcNAc(b1-2)Man(a1-6)]Man(b1-4)GlcNAc(b1-4)GlcNAc
# Outline: as §1
# [19] = molecular target: Neu5Ac(a2-3)Gal(b1-3)GlcNAc(b1-2)Man(a1-3)[Neu5Ac(a2-3)Gal(b1-3)GlcNAc(b1-2)Man(a1-6)]Man(b1-4)GlcNAc(b1-4)GlcNAc
# Outline: as §1
# [20] = molecular target: Neu5Ac(a2-3)Gal(b1-3)GlcNAc(b1-2)[Neu5Ac(a2-3)Gal(b1-3)GlcNAc(b1-4)]Man(a1-6)[Neu5Ac(a2-3)Gal(b1-3)GlcNAc(b1-2)Man(a1-3)]Man(b1-4)GlcNAc(b1-4)GlcNAc
# Outline: as §1
# [21] = molecular target: Neu5Ac(a2-3)Gal(b1-3)GlcNAc(b1-3)Gal(b1-3)GlcNAc
# Outline: as §1
# [22] = molecular target: Neu5Ac(a2-3)Gal(b1-3)GlcNAc(b1-3)Gal(b1-4)GlcNAc
# Outline: as §1
# [23] = molecular target: Neu5Ac(a2-3)Gal(b1-3)GlcNAc(b1-3)GalNAc
# Outline: as §1
# [24] = molecular target: Neu5Ac(a2-3)Gal(b1-3)GlcNAc(b1-4)Gal(b1-4)Glc
# Outline: as §1
# [25] = molecular target: Neu5Ac(a2-3)Gal(b1-3)GlcNAc(b1-6)GalNAc
# Outline: as §1
# [26] = molecular target: Neu5Ac(a2-3)Gal(b1-3)GlcNAc6S
# Outline: as §1
# [27] = molecular target: Neu5Ac(a2-3)Gal(b1-3)[Fuc(a1-4)]GlcNAc
# Outline: as §1
# [28] = molecular target: Neu5Ac(a2-3)Gal(b1-3)[Fuc(a1-4)]GlcNAc(b1-3)Gal(b1-3)[Fuc(a1-4)]GlcNAc
# Outline: as §1
# [29] = molecular target: Neu5Ac(a2-3)Gal(b1-3)[Fuc(a1-4)]GlcNAc(b1-3)Gal(b1-4)[Fuc(a1-3)]GlcNAc
# Outline: as §1
# [30] = molecular target: Neu5Ac(a2-3)Gal(b1-3)[GlcNAc(b1-6)]GalNAc
# Outline: as §1
# [31] = molecular target: Neu5Ac(a2-3)Gal(b1-3)[Neu5Ac(a2-6)]GalNAc
# Outline: as §1
# [32] = molecular target: Neu5Ac(a2-3)Gal(b1-3)[Neu5Ac(a2-6)]GlcNAc(b1-3)[Fuc(a1-3)[Gal(b1-4)]GlcNAc(b1-6)]Gal(b1-4)Glc
# Outline: as §1
# [33] = molecular target: Neu5Ac(a2-3)Gal(b1-3)]Neu5Ac(a2-3)Gal(b1-4)]GlcNAc
# Outline: as §1
# [34] = molecular target: Neu5Ac(a2-3)Gal(b1-4)Glc
# Outline: as §1
# [35] = molecular target: Neu5Ac(a2-3)Gal(b1-4)GlcNAc
# Outline: as §1
# [36] = molecular target: Neu5Ac(a2-3)Gal(b1-4)GlcNAc(b1-2)Man
# Outline: as §1
# [37] = molecular target: Neu5Ac(a2-3)Gal(b1-4)GlcNAc(b1-2)Man(a1-3)[GlcNAc(b1-4)][Neu5Ac(a2-3)Gal(b1-4)GlcNAc(b1-2)Man(a1-6)]Man(b1-4)GlcNAc(b1-4)GlcNAc
# Outline: as §1
# [38] = molecular target: Neu5Ac(a2-3)Gal(b1-4)GlcNAc(b1-2)Man(a1-3)[Neu5Ac(a2-3)Gal(b1-4)GlcNAc(b1-2)Man(a1-6)]Man(b1-4)GlcNAc(b1-4)GlcNAc
# Outline: as §1
binder,measurement,setting,value
B1,glycan array binding signal (z-score),[1],-0.344
same,glycan array binding signal (z-score),[2],-0.481
same,glycan array binding signal (z-score),[3],-0.434
same,glycan array binding signal (z-score),[4],-0.45
same,glycan array binding signal (z-score),[5],-0.401
same,glycan array binding signal (z-score),[6],-0.428
same,glycan array binding signal (z-score),[7],-0.441
same,glycan array binding signal (z-score),[8],-0.475
same,glycan array binding signal (z-score),[9],-0.474
same,glycan array binding signal (z-score),[10],-0.476
same,glycan array binding signal (z-score),[11],-0.459
same,glycan array binding signal (z-score),[12],-0.494
same,glycan array binding signal (z-score),[13],-0.457
same,glycan array binding signal (z-score),[14],-0.42
same,glycan array binding signal (z-score),[15],-0.462
same,glycan array binding signal (z-score),[16],-0.455
same,glycan array binding signal (z-score),[17],-0.455
same,glycan array binding signal (z-score),[18],-0.445
same,glycan array binding signal (z-score),[19],-0.432
same,glycan array binding signal (z-score),[20],-0.412
same,glycan array binding signal (z-score),[21],-0.456
same,glycan array binding signal (z-score),[22],-0.482
same,glycan array binding signal (z-score),[23],-0.458
same,glycan array binding signal (z-score),[24],-0.453
same,glycan array binding signal (z-score),[25],-0.431
same,glycan array binding signal (z-score),[26],-0.496
same,glycan array binding signal (z-score),[27],-0.437
same,glycan array binding signal (z-score),[28],-0.453
same,glycan array binding signal (z-score),[29],-0.456
same,glycan array binding signal (z-score),[30],-0.468
same,glycan array binding signal (z-score),[31],-0.437
same,glycan array binding signal (z-score),[32],-0.394
same,glycan array binding signal (z-score),[33],-0.423
same,glycan array binding signal (z-score),[34],-0.47
same,glycan array binding signal (z-score),[35],-0.476
same,glycan array binding signal (z-score),[36],-0.427
same,glycan array binding signal (z-score),[37],-0.474
same,glycan array binding signal (z-score),[38],-0.453
